Source: PubChem BioAssay AID485294 (National Center for Advancing Translational Sciences (NCATS), 2010)
Among all 370,000 compounds or so, about 150 (0.041%) were called active. The shares of active, inactive and inconclusive entries below differ from those in the screen. Calls follow the shape of the dose curve; as a rule, active = well fitted inhibition curve with a large enough effect; inconclusive = small, poorly fitted or top-dose-only effect; inactive = flat fitted curve, though single readings scatter. No potency is given beside an inconclusive call; the fits are too rough.

biological target: Beta-lactamase (Escherichia coli (strain K12)) (UniProt P00811); assay: qHTS Inhibitors of AmpC Beta-Lactamase (assay with detergent); conditions: AmpC hydrolysis of nitrocefin, absorbance 480 nm, 0.01% Triton; activity change, negative = inhibition: at 114 µM (top of the series); also: nearly all actives have a fitted effect of over 25% in size;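 as to activity change, negative = inhibition: 0% = no-compound wells and -100% = no-enzyme wells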
Method in brief: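 20 mM phosphate pH 7.0 + 0.01% (detergent screen) or 0.0001% Triton X-100; 5.3 nM AmpC reagent; cpd preinc 15 min RT; nitrocefin (800 uM stock) to start; A480 q20 s × 4 min; Activity was normalised to no-enzyme and no-compound control wells.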
Potency is read from the fitted curve at half-maximal effect; tags tell the direction and shape of the fitted curve.

UniProt P00811, sequence (P00811 whole entry, looked up): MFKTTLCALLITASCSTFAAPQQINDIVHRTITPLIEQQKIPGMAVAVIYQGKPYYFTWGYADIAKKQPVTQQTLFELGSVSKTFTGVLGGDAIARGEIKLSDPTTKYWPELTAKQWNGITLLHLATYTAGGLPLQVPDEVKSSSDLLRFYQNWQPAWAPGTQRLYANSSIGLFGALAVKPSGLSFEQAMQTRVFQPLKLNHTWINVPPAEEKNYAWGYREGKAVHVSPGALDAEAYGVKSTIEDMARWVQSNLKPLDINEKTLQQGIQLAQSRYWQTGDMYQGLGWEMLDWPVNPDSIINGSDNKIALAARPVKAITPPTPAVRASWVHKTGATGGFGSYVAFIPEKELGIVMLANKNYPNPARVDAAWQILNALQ

Structure (SMILES) | activity change, negative = inhibition | Potency
COc1ccc(NC(=O)c2ccco2)c([N+](=O)[O-])c1 | inactive: -0.418% | 
CCCOc1ccccc1Cn1c(=O)oc2ccccc21 |  | inconclusive [inhibitor, single point]
O=c1[nH]c(=O)n(Cc2ccco2)c(O)c1C=NCc1cccs1 | inactive: -0.599% | 
CCCCCCSc1nc2c(c(=O)[nH]c(=O)n2C)n1C |  | inconclusive [inhibitor, partial curve, poor fit]
O=C(Cc1ccccc1)OCC(=O)N1CCN(S(=O)(=O)c2ccc(Cl)cc2)CC1 |  | inconclusive [inhibitor, full curve, poor fit]
O=C(NC(=S)Nc1ccc(CN2CCOCC2)cc1)c1cccc([N+](=O)[O-])c1 | inactive: -12.8% | 
CCOC(=O)c1ccc(NC(=O)C2C3CCCCC32)cc1 (centres undefined) |  | inconclusive [inhibitor, full curve, poor fit]
O=C(O)c1cccnc1SC1CC(=O)N(c2ccccc2)C1=O (centres undefined) | inactive: 3.23% | 
NS(=O)(=O)c1ccc(CCNC(=O)c2ccccc2OCc2ccc(F)cc2)cc1 |  | inconclusive [inhibitor, full curve, poor fit]
NC(=O)COc1ncnc2scc(-c3ccc(F)cc3)c12 |  | inconclusive [inhibitor, full curve, poor fit]
Fc1ccc(C2=CCN(C(c3cccs3)c3nnnn3CCc3ccccc3)CC2)cc1 (centres undefined) | inactive: -1.89% | 
CN(C(=O)CSc1ncnc2ccccc12)C1CCS(=O)(=O)C1 (centres undefined) |  | inconclusive [inhibitor, full curve, poor fit]
CC1CCN(S(=O)(=O)c2cc(C(=O)Nc3ccccn3)ccc2Br)CC1 |  | inconclusive [inhibitor, partial curve, poor fit]
CCOc1ccccc1CNS(=O)(=O)c1cnc[nH]1 |  | inconclusive [inhibitor, full curve, poor fit]
CCCN(Cc1cc2cc(C)ccc2[nH]c1=O)C(=O)c1cccc(Cl)c1 | inactive: 13.3% | 
Cc1cc(C)cc(N(C)S(=O)(=O)c2nnc(NC(=O)COc3ccc(C)c(C)c3)s2)c1 | inactive: 3.96% | 
Cc1cc(C)n(/N=C/c2cccc([N+](=O)[O-])c2)c(=O)c1 |  | inconclusive [inhibitor, full curve, poor fit]
COc1ccc(OC)c(NC(=O)c2ccc(S(=O)(=O)N3CCN(C)CC3)cc2)c1 |  | inconclusive [inhibitor, partial curve]
O=c1c2c(nc3nc[nH]n13)CCC2 |  | inconclusive [inhibitor, full curve, poor fit]
O=C(c1ccccc1)C1CCN(C(=O)Nc2ccccc2)CC1 | inactive: -1.64% | 
COc1cccc(CNc2nc(-c3cccnc3)nc3ccccc23)c1 | inactive: 7.89% | 
Cc1ccc(CNC(=O)CN(Cc2cccs2)C(=O)C2(C)CC(=O)N=C3C=CC=CN32)cc1 (centres undefined) |  | inconclusive [inhibitor, full curve, poor fit]
O=Cc1ccc(OCC(=O)NCC2CCCO2)cc1 (centres undefined) |  | inconclusive [inhibitor, partial curve, poor fit]

Structure (SMILES) | activity change, negative = inhibition | Potency
COc1cccc(/C=C/C(=O)OCC(=O)Nc2cccc(S(=O)(=O)N(C)C)c2)c1 | inactive: 4.81% | 
Cc1[nH]n(-c2nc(-c3ccc(Cl)cc3)cs2)c(=O)c1N=Nc1ccc(O)cc1 | inactive: -7.07% | 
CCOc1ccccc1N1CCN(C(=O)c2ccncc2)CC1 |  | inconclusive [inhibitor, full curve, poor fit]
CC(=O)c1cn(CCOc2ccc(F)cc2)c2ccccc12 |  | inconclusive [inhibitor, partial curve, poor fit]
O=c1/c(=C\c2cc([N+](=O)[O-])cc([N+](=O)[O-])c2O)sc2nc3ccccc3n12 |  | inconclusive [inhibitor, partial curve]
CCN1CCOC(=O)C1CC(=O)Nc1ccccc1C(F)(F)F (centres undefined) | inactive: -0.346% | 
Cc1ccc(CCN2C(=O)c3ccc(C(=O)O)cc3C2=O)cc1 |  | inconclusive [inhibitor, full curve, poor fit]
CC1(C)O[C@@H]2C[C@H]3[C@@H]4CCC5=CC(=O)C=C[C@]5(C)[C@@]4(F)[C@@H](O)C[C@]3(C)[C@]2(C(=O)CO)O1 |  | inconclusive [inhibitor, partial curve]
Cc1cc(/C=C2\SC(=O)N(C)C2=O)c(C)n1-c1ccc(O)cc1 |  | inconclusive [inhibitor, full curve, poor fit]
COc1ccc(C2=NOC(C(=O)NCc3ccc(F)cc3)C2)cc1OC (centres undefined) |  | inconclusive [inhibitor, full curve, poor fit]
CCOCCCNC(=O)CN1C2CCC1CC(O)(c1ccc(OC)cc1)C2 (centres undefined) |  | inconclusive [inhibitor, full curve, poor fit]
COc1cc(Nc2nc(-c3ccccc3)c3cc(C)ccc3n2)cc(OC)c1OC |  | inconclusive [inhibitor, full curve, poor fit]
Cc1noc(C)c1COc1ccc(C(=O)NNC(=O)c2ccccc2F)cc1 | inactive: -0.459% | 
COc1cc(C(=O)NCc2cccc3ccccc23)ccc1OCc1ccccc1 | inactive: -9.54% | 
CC1CCc2nc(N)c(C#N)c(-c3ccncc3)c2C1 (centres undefined) | inactive: -4.99% | 
O=C(CSc1nnc(-c2ccco2)n1Cc1ccco1)N1CCOCC1 |  | inconclusive [inhibitor, full curve, poor fit]
Cc1c(NC(=O)c2ccc3nsnc3c2)cccc1[N+](=O)[O-] | inactive: -14.1% | 
O=C1NC(=O)C2(C(=O)N1)C(c1ccc(F)cc1)NC(=S)NC2c1ccc(F)cc1 (centres undefined) |  | inconclusive [inhibitor, full curve, poor fit]
CCOc1ncccc1C(=O)OCC(=O)Nc1cc(C)ccc1C |  | inconclusive [inhibitor, full curve, poor fit]
Fc1ccc(/C=N/Nc2ccccn2)cc1 |  | inconclusive [inhibitor, full curve]
CCOCCCNC(=O)/C=C1\Sc2ccccc2N(Cc2ccccc2F)C1=O |  | inconclusive [inhibitor, partial curve, poor fit]
Cc1cc(C)cc(OCC(=O)NCC2CCCO2)c1 (centres undefined) | inactive: 3.07% | 
CCC(CC)C(=O)NCCN1CCN(C(=O)C(CC)CC)CC1 |  | inconclusive [inhibitor, partial curve, poor fit]

Structure (SMILES) | activity change, negative = inhibition | Potency
N=c1n(Cc2ccccc2)c2ccccc2n1CC(O)c1ccccc1 (centres undefined) | inactive: -14.5% | 
O=C(O)CCC(=O)N1CCN(c2ccccn2)CC1 | inactive: 2.67% | 
CCCCNC(=O)Nc1cc(C)on1 | inactive: -8.4% | 
O=C1C=C(Nc2ccc(Cl)cc2)C(=O)N1c1ccc(Cl)cc1 |  | inconclusive [inhibitor, full curve, poor fit]
CC(NC(=O)c1cnc2n(c1=O)CCS2)c1ccccc1 (centres undefined) |  | inconclusive [inhibitor, partial curve, poor fit]
Cc1cnc(NC(=O)C2CCCO2)s1 (centres undefined) |  | inconclusive [inhibitor, partial curve, poor fit]
CN(CCNC(=O)c1cn(C)c2ccc(S(=O)(=O)N(C)C)cc2c1=O)CCc1ccccc1 |  | inconclusive [inhibitor, full curve, poor fit]
Cc1ccc(Oc2cc(C)nc(-c3ccccc3O)n2)cc1 | inactive: -12.2% | 
COc1cccc(F)c1C(C[N+](=O)[O-])c1c(N)n(C)c(=O)n(C)c1=O (centres undefined) | inactive: 2.31% | 
COc1ccc(S(=O)(=O)NCC2CCCN(C(=O)CSC)C2)cc1 (centres undefined) |  | inconclusive [inhibitor, full curve]
O=C(NCC1CCN(Cc2ccccc2F)CC1)C1CCCN(c2ncnc3c2nc2n3CCCCC2)C1 (centres undefined) |  | inconclusive [inhibitor, partial curve, poor fit]
Cc1ccc(C)n1-c1ncc(Br)cn1 |  | inconclusive [inhibitor, full curve, poor fit]
CC(Oc1ccc(Cl)cc1Cl)C(=O)OCn1nnc2ccccc2c1=O (centres undefined) |  | inconclusive [inhibitor, full curve, poor fit]
COC(=O)CC(c1ccc(C(C)C)cc1)n1cccc1 (centres undefined) |  | inconclusive [inhibitor, full curve, poor fit]
COc1ccc(S(=O)(=O)NCCc2ccccc2)cc1OC |  | inconclusive [inhibitor, partial curve, poor fit]
Cc1cc2c(cc1S(=O)(=O)N(C)c1ccccc1)n(C)c(=O)n2C |  | inconclusive [inhibitor, full curve, poor fit]
COc1ccc(CC(=O)Nc2cccc(-c3nnc(-c4ccc(C)cc4)o3)c2)cc1OC | inactive: 0.899% | 
CC1(C)C(c2cccs2)=[N+]([O-])C2(CCCCC/C2=N\NC(N)=O)N1O (centres undefined) |  | inconclusive [inhibitor, full curve, poor fit]
CCN(Cc1ccccc1)C(c1ccccn1)c1nnnn1C(C)(C)CC (centres undefined) |  | inconclusive [inhibitor, full curve, poor fit]
COc1ccc(NC(=O)c2cc(-c3ccccn3)nc3c(C)cc(C)cc23)c(C)c1 | inactive: 9.85% | 
CS(=O)(=O)c1ccccc1-c1csc(N2CCC(C(N)=O)CC2)n1 |  | inconclusive [inhibitor, full curve, poor fit]
COc1ccc(N2C(=O)C3CCCN3C2c2cccs2)cc1 (centres undefined) |  | inconclusive [inhibitor, partial curve]
CCOC(=O)c1sc2nccc(OC)c2c1N=CN(C)C |  | inconclusive [inhibitor, full curve, poor fit]
